Our source for the nonsense suppression values is the RNAGym collection of RNA variant scans (doi:10.1101/gad.245936.114).

The labels stand for the following.
B1: tRNA (parent)
chain: CUCUCGGUAGCCAAGUUGGUUUAAGGCGCAAGACUUUAAUUUAUCACUACGAAAUCUUGAGAUCGGGCGUUCGACUCGCCCCCGGGAGAUUUUUUCCUCGAGCAA

Variants at the floor of the assay are shown more often than the library holds them.

The variants in this data set derive from B1. Description: nonsense suppression (GFP-seq) (ratio to wild type); higher = more function; SUP4oc tRNA, yeast GFP reporter sort-seq. The method, boiled down:
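Nonsense suppression (GFPSEQ) is the median GFP/RFP ratio of each sorting bin, weighted by the variant's estimated share of cells in that bin and expressed relative to the unmutated parent tRNA. Yeast strains carried genome-integrated variants of an ochre-suppressor tRNA from a library with ~3% random mutations, plus a galactose-driven GFP ochre reporter and RFP, and were grown in raffinose/galactose medium containing 80 mg/L adenine. Cells were sorted into GFP/RFP bins, each bin was Illumina-sequenced (phred ≥30), and variants were kept only with ≥100 reads and ≥30 cells.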
For CUCUCGGUAGCCAAGUUGGUUUAAGGCGCAAGACUUUAAUUUAUCACUACGAAAUCUUGAGAUCGGGCGUUCGACUCGCCCCCAGGGGAUUUUUUCCUCGAGCAA [G84A A87G], the nonsense suppression worked out at 0.157.
Consider CUCUCAGUAGCCAAGUUGGUUUAAGGCGCAAGACUUUAAUUUAUCACUACGAAAUCUUGACAUCGGGCGUUCGACUCGACCCCGGGAGAUUUUUUCCUCGAGCAA [G6A G61C C79A], for which the nonsense suppression is at most 0.026.
With CUCUCGGUAUCCAAGUUGGUUUAAGGCGCAAGACUUUAAUUUAUCACUACGAAAUCUUGAGAUCGGUCGUUCGACUCGCCCCCGGGAGAUUUUUUCCUCGAGCAA [G10U G67U] the figure was at most 0.026.
CUCUCGGUAACCAAGUUGGUUUGUGGCGCAAGACUUUAAUUUAUCACUACGAAAUCUUGAGAUCGGGCGUUCGACUCGCCCCCGGGAGAUUUUUUCCUCGAGCAA [G10A A23G A24U]: the nonsense suppression was at most 0.026.
With CUCUCGGUAGCCAAGUUGGUUUAAGGCGCAAGACUUUAAUUUAUCACUACGAAAUCUUGAGAUCGGGCCUUCGACUCGCCCCCCGGAGAUUUUUUCCUCGAGCAA [G69C G84C] the figure was at most 0.026; with CUCUCGGUAGCCAAGUUGGUUUAAGUCGCAAGACUUUAAUUUAUCACUACGAAAUCUUGAGAUCGGGCGUUCGACUCGCCCCCGGGAGAUUUUUUCCUCGAGCAA [G26U], at most 0.026.
As to CUCUCGGUAUCCAAGUUGGUUUAAGGCGCAAGACUUUAAUUUAUCACUACGAAAUCUUGAGAUCGGCCGUUCGACUCGCCCCCGGGAUUUUUUUUCCUCGAGCAA [G10U G67C G88U A89U], the nonsense suppression is at most 0.026.
Then CUCUCGGUAGCCAAGUUGGUUUAAGGCGCAAGACUUUAAUUUAUCACUACGAAAUCUUGAGAUCCGGCGCGCGACUCGCCCCCGGGAGAUUUUUUCCUCGAGCAA [G65C U70C U71G], with at most 0.026; and CUCUCGGUAACCAAGUUGGUUUAAGGCGCAAGACUUUAAUUUAUCACUACGAAAUCUUGAGAUCGGGCAUUCGACUCGCCCCCGGGAGAUUUUUUCCUCGAGCAA [G10A G69A], with at most 0.026; and CUCUCGGUAGCCAAGUUGUUUUAAGGCGCAAGACUUUAAUUUAUCACUACGAAAUGUUGAGAUCGGGCCGUCGACUCACCCCCGGGAGAUUUUUUCCUCGAGCAA [G19U C56G G69C U70G G78A], with at most 0.026.
As to CUCUCGGUAGCCAAGUUGGUUUAAGGCGCAAGACUUUAAUUUAUCACUACGAAAUCUUGAGAUCGGGCCCUCGAAUCGCCCCCGGGAGAUUUUUUCCUCGAGCAA [G69C U70C C75A], the nonsense suppression was at most 0.026.
Take CUCUCGGUAGCCAAGUUGGUUUAAGGCGCCAGACUUUAAUUUAUCACUACGAAAUCUUGAGAUCGGGCGUUCGACUCGCCCCCGGGAUAUUUUUUCCUCGAGCAA [A30C G88U]: the nonsense suppression is at most 0.026.
On to CUCUCGGUAGCCAAGUUGGUAUAAGGCGCAAGACCUUAAUUUAUCACUACGAAAUCUUGAGAUCGGGCGUUCGACUCGUCCCCGGGCGAUUUUUUCCUCGAGCAA [U21A U35C C79U A87C], for which the nonsense suppression is at most 0.026.
As to CUCUCGGUAGCCAAGUUGGUUUAAGGCGCAAGACUUUAAUUUAUCACUACGAAAUCUUGUGAUCUGGCGUUCGCCUCGCCCACGGGAGAUUUUUUCCUCGAGCAA [A60U G65U A74C C82A], the nonsense suppression is at most 0.026.
Then CUCUCGGUAGCAAAGUUGGUUUAAGGCGCAAGACAUUAAUUUAUCACUACGAAAUCUUGAGAUCGGGCGUUCGACUCGCCGCCGGGAGAUUUUUUCCUCGAGCAA [C12A U35A C81G], with at most 0.026; and CUCUCGGUAGCCAAGUUGGUUUACGACGCAAGACUUUAAUUUAUCACUACGAAAUCUCGAGAUCGAGCGUUCGACUCGUCCCCGGGAGAUUUUUUCCUCGAGCAA [A24C G26A U58C G66A C79U], with at most 0.026; and CUCUCUGUAGCCAAGUUGGUUUAAGGCGCAAGAAUUUAAUUUAUCACUACGAACUCUUGAGAUCAGGCGUUCGAAUCGCCCCCGGGAGAUUUUUUCCUCGAGCAA [G6U C34A A54C G65A C75A], with at most 0.026.
With CUCUCGGUAGCCAAGUUGGUUUAAGGCGCAAGACUUUAAUUUAUCACUACGAAAUGUUGAGAUCGGGCGUUCGACUCGCCCCCGGGAGAUUUUUUCCUCGAGCAA [C56G] the figure was at most 0.026.
Then CUCUCGGUAGCCAAGUUGGUGUAAGGCGCAAGUCUUUAAUUUAUCACUACGAAAUCCAGAGAUCGGGCGUUCGACUCGCCCCCGGGAGAUUUUUUCCUCGAGCAA [U21G A33U U57C U58A], with at most 0.026; and CUCUCGGUAGCCAAUUUGGUUUAAGGUGCAAGCCUUUAAUUUAUCACUACGAAAUCUUGAGAUCGGGCGUUCGACUCGCCCCCGGGAGAUUUUUUCCUCGAGCAA [G15U C27U A33C], with at most 0.026.
In the case of CUCUCGGUAGCCAAGUUGGUUUACGGCGCAAGACUUUAAUUUAUCACUACGAAAUCUUGAGCUCGGGCGUUCGACUCGCCCCCGGGAGAUUUUUUCCUCGAGCAA [A24C A62C], the nonsense suppression was at most 0.026.
With CUCUCCGUAGCCAGGUUGGUUUAAGGCGCAAGACUUUAAUUUAUCACUACGAAAUCUUGCGAUCUGGCGUUCGACUCGGCCCCGGCAGAUUUUUUCCUCGAGCAA [G6C A14G A60C G65U C79G G86C] the figure was at most 0.026; with CUCUCCGUAGCCAAGUUGGUUUAAGGCGUAAGACUUUAAUUUAUCACUACGAAAUCUCGCGAUCGGGCGUGCGUCUCGCCCGCGGGAGAUUUUUUCCUCGAGCAA [G6C C29U U58C A60C U71G A74U C82G], at most 0.026.
On to CUCUCGGUAGCCAAGUUGGUUUAAGGCGCAAGAGUUUAAUUUAUCACUACGAAAUCUUGAGAUCGGCCGUUCGACUCGCCCCCGGGAGAUUUUUUCCUCGAGCAA [C34G G67C], for which the nonsense suppression is at most 0.026.
Then CGCUCGGUAGCCAAGGUGGUUUAAGGCGCAAGACUUUAAUUUAUCACUACGAAAUCUUGAGAUCGGGCGUUCGACUCGCCCCCGGGAGAUUUUUUCCUCGAGCAA [U2G U16G], with at most 0.026; and CUCUCGGUAGCCAAGUCGGUUUAAGGCGCAAGACUUUAAUUUAUCACUACGAAAUCUUGAGAUCGGGCGUUCGAAUCGCCCCCGGGAAAUUUUUUCCUCGAGCAA [U17C C75A G88A], with at most 0.026; and CGCUCGGUAGCCAAGUUGGUUUCAGGCGCAAGACUUUAAUUUAUCACUACGAAAUCUUGAGAUCGGGCGUUCGACCCGCCCCCGGGAGAUUUUUUCCUCGAGCAA [U2G A23C U76C], with at most 0.026.
